Results from paper PMC4336329 (PLoS ONE, 2015).
The whole screen tested about 310,000 compounds, of which about 14,000 (4.5%) showed an effect of 50% or more. Effects have a minus sign here. Some of the results follow.

biological target: human ether-à-go-go-related gene (hERG) potassium channel (human, UniProt Q12809); assay: primary screen, population patch clamp on CHO cells stably expressing hERG
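Note: peak tail current of the secondary pulse compared with the same well before compound.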

human ether-à-go-go-related gene (hERG) potassium channel, sequence (Q12809 whole entry, looked up): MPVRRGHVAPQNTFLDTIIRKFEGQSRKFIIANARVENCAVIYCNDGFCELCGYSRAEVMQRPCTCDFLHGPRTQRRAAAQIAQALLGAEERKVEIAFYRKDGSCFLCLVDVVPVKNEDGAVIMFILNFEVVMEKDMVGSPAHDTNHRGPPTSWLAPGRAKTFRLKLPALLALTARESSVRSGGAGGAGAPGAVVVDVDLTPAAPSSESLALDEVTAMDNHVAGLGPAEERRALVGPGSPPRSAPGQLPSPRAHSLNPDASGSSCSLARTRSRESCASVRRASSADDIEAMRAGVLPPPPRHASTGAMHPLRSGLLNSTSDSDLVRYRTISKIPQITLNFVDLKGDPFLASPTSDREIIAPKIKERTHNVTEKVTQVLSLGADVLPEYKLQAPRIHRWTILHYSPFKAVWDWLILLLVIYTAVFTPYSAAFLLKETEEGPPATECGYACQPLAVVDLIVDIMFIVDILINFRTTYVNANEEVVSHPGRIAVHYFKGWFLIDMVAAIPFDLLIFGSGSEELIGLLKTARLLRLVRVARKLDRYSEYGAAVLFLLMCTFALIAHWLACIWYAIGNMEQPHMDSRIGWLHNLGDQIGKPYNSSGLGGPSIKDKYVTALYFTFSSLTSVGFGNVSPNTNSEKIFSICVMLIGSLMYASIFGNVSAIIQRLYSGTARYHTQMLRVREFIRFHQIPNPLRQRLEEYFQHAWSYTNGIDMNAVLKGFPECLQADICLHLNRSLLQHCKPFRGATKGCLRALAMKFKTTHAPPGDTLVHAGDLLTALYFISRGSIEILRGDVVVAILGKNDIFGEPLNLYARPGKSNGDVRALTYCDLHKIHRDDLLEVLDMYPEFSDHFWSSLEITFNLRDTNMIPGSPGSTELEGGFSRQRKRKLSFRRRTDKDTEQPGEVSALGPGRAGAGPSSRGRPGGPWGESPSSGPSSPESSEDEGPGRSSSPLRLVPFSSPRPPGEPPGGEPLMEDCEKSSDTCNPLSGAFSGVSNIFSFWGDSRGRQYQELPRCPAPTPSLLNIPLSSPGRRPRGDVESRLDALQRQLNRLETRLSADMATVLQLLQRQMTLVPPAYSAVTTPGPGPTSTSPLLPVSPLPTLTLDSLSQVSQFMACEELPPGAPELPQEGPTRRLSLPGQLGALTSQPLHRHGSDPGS

| SMILES | hERG current change (%, negative = inhibition) at 10uM |
| --- | --- |
| COc1ccc(C2=NS(=O)(=O)N(C)C(C(=O)N3CCOCC3)=C2)cc1OC | -2.16% |
| CCNCc1ccc(OCc2ccccc2F)c(OC)c1.Cl | -11% |
| CC(=O)N(CCc1cccc(C)c1)Cc1cc2cc(C)ccc2[nH]c1=O | -5.71% |
| CCCNC(=O)CN(C)CC(=O)Nc1ccccc1C#N | 21.3% |
| CCN(CC)S(=O)(=O)c1cc(NS(=O)(=O)c2ccccc2)ccc1C | -3.17% |
| COCCNC(=O)Cn1cc(C(=O)c2ccco2)c2ccccc21 | 0.981% |
| O=[N+]([O-])c1ccc(S(=O)(=O)Nc2nnc(C(F)(F)F)s2)cc1 | 3.45% |
| O=C1CC(NCCN2CCOCC2)C(=O)N1Cc1ccc(N2CCCC2=O)cc1 (stereo not shown) | 17.7% |
| CC(=O)c1cc2c(cc1NC(=O)CN1CCCCCCC1)OCO2.O=C(O)C(=O)O | 4.89% |
| CN1CCN(C2CCCCC2NS(=O)(=O)c2ccc(Cl)cc2)CC1 (stereo not shown) | -29.8% |
| CC(OC(=O)CCN=C1NS(=O)(=O)c2ccccc21)C(=O)NCc1ccccc1 (stereo not shown) | 8.04% |
| O=C(N/N=C(\c1ccccc1)c1ccccn1)c1ccccc1Cl | -2.4% |
| CC1CCc2nc(NC(=O)c3ccc(S(=O)(=O)N4CCCc5ccccc54)cc3)sc2C1 (stereo not shown) | -6.64% |
| Cc1ccc(-n2ccc(=O)c(-c3ccnc(SCc4cccc(Cl)c4)n3)n2)cc1 | 11.6% |
| Cc1csc2cc(-c3cccc([N+](=O)[O-])c3)c(-c3cccc([N+](=O)[O-])c3)c[n+]12.[Br-] | 7.37% |
| O=C(c1ccc(CNS(=O)(=O)c2ccccc2)cc1)N1CCC2(CC1)OCCO2 | -4.16% |
| O=C(O)CCSc1nnc(COc2ccc([N+](=O)[O-])cc2)n1-c1ccccc1 | 22.8% |
| CN1CCN(C(=O)c2cc(Br)cn2C)CC1 | 13% |
| O=C(CN1C(=O)CCC1=O)Nc1nc(-c2ccc(Cl)s2)cs1 | -5.39% |
| COc1ccc(C2C(C(=O)N3CCOCC3)c3ccccc3C(=O)N2c2ccc(OC)cc2)cc1 (stereo not shown) | -12.8% |
| COc1ccc(S(=O)(=O)N2CCN(C(=O)c3c(C)nn(-c4ccccc4)c3C)CC2)cc1 | -35.3% |
| COc1ccc(-n2nnnc2SCc2nc3ccccc3s2)cc1 | -5.94% |
| Cc1c(NC(=O)CN(c2ccccc2)S(=O)(=O)c2ccc(F)cc2)c(=O)n(-c2ccccc2)n1C | -46.6% |
| CC1(C)CC(=O)C=C(c2cccc(CO)c2)C1 | 18.5% |
| CC(C)OC(=O)c1cn(-c2ccccc2)nc1-c1ccc2c(c1)OCCO2 | 13.4% |
| Cn1nc2c(c1C(=O)O)CCCC2 | -6.21% |
| COc1ccc(CN(C)C(=O)CCN(c2ccccc2)S(=O)(=O)c2ccc(C)cc2)c(OC)c1 | -41.5% |
| S=C(NCc1ccco1)Nc1ccc(Br)cc1Cl | 0.089% |

| SMILES | hERG current change (%, negative = inhibition) at 10uM |
| --- | --- |
| CCN(CC)c1ccc(C(=O)N/N=C/c2ccc(OC)cc2OC)cc1 | 20% |
| COc1cccc(C(=O)N(CN2CCCC2=O)c2ccccc2OC)c1 | -8.24% |
| CCOC(=O)c1c(/N=C/c2c(O)n(-c3cccc(C)c3)c(=O)[nH]c2=O)sc2c1CCCC2 | 13.2% |
| O=c1[nH]c(CSc2nnc3ccccn23)nc2cc(C(F)(F)F)ccc12 | -7.94% |
| CC1CC(NC(=O)C2(C)CC2(Cl)Cl)CC(C)(C)C1 (stereo not shown) | 8.78% |
| Cc1ccc(S(=O)(=O)NC(C)(C)CSc2nncn2C)cc1 | -4.79% |
| COc1ccc(S(=O)(=O)Nc2nncs2)cc1 | 18% |
| COc1ccc(OC)c(-c2nc(C(=O)NCCCN3CCOCC3)cc3c2[nH]c2ccccc23)c1 | -65.7% |
| COc1cc2cc(C)c(SCC(=O)N3CCOCC3)nc2cc1OC | -1.12% |
| CCN(CC)CCCNC(=O)C(C)Sc1nc(-c2ccccc2)cc(C(F)(F)F)n1 (stereo not shown) | -48.2% |
| O=C(/C=C/Nc1ccc(OC(F)(F)F)cc1)C(F)(F)F | -14.2% |
| COc1ccc(N2C(=O)C(Cl)=C(Nc3ccc(OC)cc3OC)C2=O)cc1 | 18.5% |
| Cc1nnc(N/N=C/c2ccccn2)[nH]c1=O | 14.1% |
| CCCCc1cc(=O)oc2cc(OCC(=O)NC(Cc3c[nH]c4ccc(O)cc34)C(=O)O)ccc12 (stereo not shown) | 3.86% |
| CCOc1ccc2nc(NC(=O)C(CC)Sc3nc(C)cc(=O)[nH]3)sc2c1 (stereo not shown) | 12.4% |
| c1ccc(CN2CCc3nc4ccccc4cc3C2)cc1 | -4.62% |
| COc1ccccc1CC1(C)NC(=O)N(CC(=O)N2CCc3ccccc3C2)C1=O (stereo not shown) | -24.4% |
| CC1=CC(C)(C)Nc2ccc(OC(=O)CN3C(=O)c4ccccc4C3=O)cc21 | 15% |
| NC(=O)CSc1nnc(Cc2ccc3c(c2)OCO3)n1C1CCCCC1 | -2.74% |
| CCOc1ccc(NC(=O)C2CCCN(S(=O)(=O)c3c(C)n[nH]c3C)C2)cc1 (stereo not shown) | -4.42% |
| CCC(C)NC(=O)COCc1cc(-c2ccc3c(c2)OCO3)on1 (stereo not shown) | 4.21% |
| COc1cccc(/C=C/C(=O)OCC(=O)Nc2ccc(Cl)c(S(=O)(=O)N(C)C)c2)c1 | 9.85% |
| O=C(NCCCCc1ccccc1)c1ccccc1 | 15% |
| Cc1oc(-c2ccc(Cl)cc2)nc1CS(=O)CC(=O)NCc1ccccc1 (stereo not shown) | -9.63% |
| CCCc1nc2ccc(NC(C)=O)cc2c(=O)n1Cc1cccc(Cl)c1 | -1.09% |
| CCC(NC(=O)NCCCn1ccnc1)(C(F)(F)F)C(F)(F)F | 8.18% |
| Cc1cc(-c2ccccc2)nc(N/N=C/c2cccnc2)n1 | 12.4% |
